Results published in the supplement of paper PMC3334620.
Over roughly 33,000 sequences, “E-score (-0.5 to 0.5)” has its median near -0.054; the highest 2% begin near 0.39. The list shows a part of the results.

molecular target: Ylr278c (UniProt Q05854); assay: PBM E-score (8-mer binding enrichment) (E-score (-0.5 to 0.5)); higher = stronger / more preferred TF binding; most listed sequences are background and not binding sites; conditions: protein concentration: 200 nM; construct: GST-DNA-binding domain
Summary of the method: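 GST-tagged yeast TFs (full-length or DNA-binding domain) were made by PURExpress in vitro transcription/translation and applied at about 100-200 nM to universal all-10-mer Agilent arrays. The arrays were made double-stranded by primer extension, on fresh or once-stripped slides. Bound protein was detected with fluorescent anti-GST, and scans were normalised with masliner. Each ungapped eight-base word, pooled with its reverse complement, received an E-score (modified Wilcoxon-Mann-Whitney statistic) from the Universal PBM Analysis Suite.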

Compared with ATTTGCCG, CTCTCCTA is lower in “PBM E-score” value: 0.308 for the first, -0.103 for the second.

Going from AACATACG to CGAGTTTC, the “PBM E-score” value rises from 0.0888 to 0.114.

Going from ACGGCGTG to AGTGGTTG, the “PBM E-score” value falls from 0.122 to -0.0668.

Going from GAAGGACC to GAATAGCC, the “PBM E-score” value rises from -0.0377 to -0.0185.

Going from AACAGCGA to ATGAACAA, the “PBM E-score” value rises from -0.162 to -0.152.

Going from AATAGGCA to GAGGCTAC, the “PBM E-score” value falls from -0.0236 to -0.142.

Going from GGACGCGA to AGCTGTAT, the “PBM E-score” value falls from -0.0183 to -0.189.

Going from ACCTTACC to TAGCAACA, the “PBM E-score” value falls from 0.02 to -0.087.

Going from CCGCTAGC to ACTGTAGG, the “PBM E-score” value falls from 0.0837 to 0.0177.

Going from ACGAAGGA to AAAGGTCG, the “PBM E-score” value falls from -0.0846 to -0.0967.

First: TCATTAAA
Second: CTTACGTC
The “PBM E-score” value of the first is higher: 0.109 for the first, -0.223 for the second.

Compared with TCTTAAAA, CTTAGTAA is higher in “PBM E-score” value: -0.228 for the first, 0.0152 for the second.

Going from GTTATGGA to TCCATGCA, the “PBM E-score” value rises from -0.0754 to 0.124.

Going from ACTCTACA to AGCACGCT, the “PBM E-score” value rises from -0.252 to -0.187.

Going from CACTCCGA to AACCAGGC, the “PBM E-score” value falls from 0.454 to -0.0994.

First: TCGTGAGA
Second: CTCGCACC
The “PBM E-score” value of the first is higher: 0.0544 for the first, -0.0433 for the second.

First: AAAGGCGC
Second: TCAAGTCA
The “PBM E-score” value of the first is higher: -0.072 for the first, -0.11 for the second.

Compared with GTCCGGCA, ACGTTTTC is lower in “PBM E-score” value: 0.41 for the first, -0.112 for the second.

Going from AAGAATTC to GTCTGAAC, the “PBM E-score” value falls from 0.00711 to -0.226.

First: AAGGCGAA
Second: ATTAAAAA
The “PBM E-score” value of the first is lower: 0.00122 for the first, 0.0584 for the second.

Going from AGGCAACC to ATATGAAC, the “PBM E-score” value falls from -0.0802 to -0.153.

First: CCAGTGAC
Second: ACCGGCAT
The “PBM E-score” value of the first is lower: -0.227 for the first, 0.353 for the second.

Compared with GTCACGGA, CAGATTGG is lower in “PBM E-score” value: 0.401 for the first, -0.0595 for the second.

Compared with AAGAAGTA, AAGATACA is lower in “PBM E-score” value: -0.0639 for the first, -0.189 for the second.

Going from ATATGGGG to AGAGAGCG, the “PBM E-score” value falls from -0.00676 to -0.0399.

Going from CACCAAGC to ATGGGGGC, the “PBM E-score” value falls from -0.11 to -0.219.

Going from CAGTCCCC to GGTCTGTA, the “PBM E-score” value rises from -0.278 to 0.0393.

Going from CACAAATG to ACTAGACG, the “PBM E-score” value falls from -0.129 to -0.202.

Compared with GCGGACCC, GTACGGCA is lower in “PBM E-score” value: 0.354 for the first, 0.125 for the second.

First: CAACGGAA
Second: CCAACCGG
The “PBM E-score” value of the first is higher: 0.334 for the first, 0.25 for the second.

Compared with AGTTCCTC, TGGACCAA is lower in “PBM E-score” value: -0.00062 for the first, -0.022 for the second.

First: ATAGACAC
Second: AGATACAC
The “PBM E-score” value of the first is lower: -0.255 for the first, -0.0474 for the second.

First: ACCGGGCT
Second: GCCGATCA
The “PBM E-score” value of the first is higher: 0.223 for the first, 0.188 for the second.

Compared with GATTCGAA, ACTAATTA is lower in “PBM E-score” value: 0.102 for the first, -0.09 for the second.

First: CACCATCC
Second: CATCACAC
The “PBM E-score” value of the first is lower: -0.126 for the first, -0.096 for the second.

Compared with AGATTGCT, AAATCAGC is higher in “PBM E-score” value: -0.142 for the first, -0.00055 for the second.

Going from GAACAATC to CATGCAGG, the “PBM E-score” value falls from 0.0629 to -0.21.

Compared with CTTCGCCC, AGTGATGC is lower in “PBM E-score” value: 0.0298 for the first, -0.147 for the second.

First: GTTGAATA
Second: AAATGAGC
The “PBM E-score” value of the first is lower: -0.0893 for the first, -0.0373 for the second.

Compared with ATATCCAC, CGTACCTC is higher in “PBM E-score” value: -0.0464 for the first, -0.0106 for the second.

Compared with ATTCGGCG, AGGCGTAT is lower in “PBM E-score” value: 0.286 for the first, -0.308 for the second.

Going from CAACGCAA to GGCGAACA, the “PBM E-score” value rises from -0.0281 to 0.0518.

Compared with ACATGGGG, CCCGGCGG is higher in “PBM E-score” value: -0.0148 for the first, 0.396 for the second.

Going from CGTCGTCC to GCTAACAC, the “PBM E-score” value falls from 0.0623 to -0.116.

First: CCCATAAG
Second: ACCCTAGG
The “PBM E-score” value of the first is higher: 0.0166 for the first, -0.298 for the second.

Going from AGCCTCCT to AATGGCTA, the “PBM E-score” value rises from -0.196 to -0.126.

Going from GGGTATGA to CCAAAAGA, the “PBM E-score” value falls from 0.00815 to -0.0991.

Compared with AGGCGAGC, CACCGACG is higher in “PBM E-score” value: -0.237 for the first, 0.277 for the second.

Going from GTTAGCAA to CTGCCGCC, the “PBM E-score” value rises from -0.138 to -0.0057.

Compared with GTTGCCTA, CAAGTTGA is lower in “PBM E-score” value: 0.0336 for the first, -0.0934 for the second.

First: GACCATCA
Second: AAAGTTAA
The “PBM E-score” value of the first is higher: 0.0652 for the first, -0.0277 for the second.

First: AAGTAAGT
Second: AACGGCAG
The “PBM E-score” value of the first is lower: -0.0844 for the first, 0.026 for the second.

First: ACTTATAC
Second: ATTGTGTC
The “PBM E-score” value of the first is higher: 0.00673 for the first, -0.0502 for the second.

Compared with CAATTCTC, GATCTCGC is higher in “PBM E-score” value: 0.0454 for the first, 0.0872 for the second.

Compared with ATACCGCG, ATTTATTG is lower in “PBM E-score” value: 0.242 for the first, -0.0635 for the second.

Compared with ATAGAAAG, GTTGGACA is lower in “PBM E-score” value: -0.0777 for the first, -0.22 for the second.

First: GAGCGCTC
Second: TACTATGA
The “PBM E-score” value of the first is higher: 0.0431 for the first, -0.154 for the second.

Going from AGTCGGAC to CCGATTTC, the “PBM E-score” value falls from 0.366 to 0.303.

Compared with AACTTCTC, CCCCGCCC is higher in “PBM E-score” value: -0.0643 for the first, 0.33 for the second.

Compared with ATACCAAA, ATGCACTC is lower in “PBM E-score” value: -0.0676 for the first, -0.116 for the second.

First: ACAGATAG
Second: GCTGGGTA
The “PBM E-score” value of the first is higher: -0.155 for the first, -0.198 for the second.

Going from AACAGTAT to ACTTATGG, the “PBM E-score” value rises from -0.192 to -0.0758.

First: CCATTGAG
Second: GGAGTTTA
The “PBM E-score” value of the first is lower: -0.0609 for the first, 0.332 for the second.

Compared with AACGTTCC, CTTGAGAA is lower in “PBM E-score” value: 0.035 for the first, -0.386 for the second.

First: ATTTCGTA
Second: GCTAGTGA
The “PBM E-score” value of the first is higher: -0.062 for the first, -0.236 for the second.

Going from CCGGTTAG to CGGCGCAG, the “PBM E-score” value falls from 0.293 to 0.219.

Compared with ACCCTCAT, AGTACCAC is higher in “PBM E-score” value: -0.234 for the first, -0.127 for the second.

First: AACGAGTG
Second: TAACAGGA
The “PBM E-score” value of the first is lower: -0.145 for the first, -0.129 for the second.

First: ATACTCCG
Second: GCCGATAC
The “PBM E-score” value of the first is higher: 0.487 for the first, 0.298 for the second.

Going from CGAAATGC to CACGCATC, the “PBM E-score” value rises from 0.0951 to 0.112.

Going from CAACAATA to ACCCCCCT, the “PBM E-score” value falls from -0.0505 to -0.339.

First: TACTGTCA
Second: AGGATTCA
The “PBM E-score” value of the first is lower: -0.188 for the first, -0.154 for the second.

Compared with CTCCAAGA, CTGGAGTC is higher in “PBM E-score” value: -0.206 for the first, -0.0908 for the second.

Going from CTACCGAA to CGCCTAAC, the “PBM E-score” value rises from 0.0419 to 0.0448.

Going from GGCTAGTA to AGTTAGGA, the “PBM E-score” value rises from -0.0152 to 0.0174.

Compared with ACTTCCCG, ACCCTCGT is lower in “PBM E-score” value: 0.229 for the first, -0.0641 for the second.

First: AATTGCGC
Second: CATGGTAA
The “PBM E-score” value of the first is higher: 0.255 for the first, -0.208 for the second.

Compared with ACGTATAC, CTTTCCAC is higher in “PBM E-score” value: -0.157 for the first, 0.132 for the second.

First: AGGAATGA
Second: GTGCGACA
The “PBM E-score” value of the first is lower: -0.129 for the first, -0.011 for the second.

Going from AGTTAGTC to ACGCAAGT, the “PBM E-score” value falls from 0.0844 to -0.195.

Compared with CGTATCGA, CGTGGGCA is higher in “PBM E-score” value: -0.228 for the first, -0.16 for the second.

First: CCACTCGA
Second: AACATTGA
The “PBM E-score” value of the first is lower: -0.215 for the first, -0.186 for the second.

First: CGTGAGAA
Second: CGCGGGAC
The “PBM E-score” value of the first is lower: -0.0134 for the first, 0.305 for the second.

First: CATGGCAC
Second: CACTTCCG
The “PBM E-score” value of the first is lower: 0.133 for the first, 0.271 for the second.

Compared with CCGGTGAC, ACTAGCAC is lower in “PBM E-score” value: 0.297 for the first, -0.156 for the second.

Compared with CTCCGATA, AGTTGTAA is lower in “PBM E-score” value: 0.462 for the first, -0.216 for the second.
